Assay in all cases: universal protein binding microarray (PBM)
Holding throughout (conditions): transcription factors of Arabidopsis thaliana; high values mean tight binding; most listed sequences are background and not binding sites; double strand, one strand shown

The target in one experiment is T1, GST-ANAC092(1-176) (UniProt Q9FKA0).
T1 sequence: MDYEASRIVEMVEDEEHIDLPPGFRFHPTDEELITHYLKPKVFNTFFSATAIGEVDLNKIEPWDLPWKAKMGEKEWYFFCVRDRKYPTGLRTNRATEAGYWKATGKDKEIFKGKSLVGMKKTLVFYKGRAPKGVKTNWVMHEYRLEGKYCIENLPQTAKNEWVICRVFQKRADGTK

The next experiment addresses GST-NTL6(1-168) (UniProt Q9SCK6).
Another experiment deals with T2, GST-ANAC019 NAC domain (UniProt Q9C932).
T2 sequence: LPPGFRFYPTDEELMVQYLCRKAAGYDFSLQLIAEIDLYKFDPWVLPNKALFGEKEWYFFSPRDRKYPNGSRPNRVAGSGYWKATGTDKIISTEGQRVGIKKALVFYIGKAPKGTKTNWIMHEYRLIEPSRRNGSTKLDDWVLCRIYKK

A further experiment addresses T3, GST-ANAC055(1-171) (UniProt Q9LDY8).
T3 sequence: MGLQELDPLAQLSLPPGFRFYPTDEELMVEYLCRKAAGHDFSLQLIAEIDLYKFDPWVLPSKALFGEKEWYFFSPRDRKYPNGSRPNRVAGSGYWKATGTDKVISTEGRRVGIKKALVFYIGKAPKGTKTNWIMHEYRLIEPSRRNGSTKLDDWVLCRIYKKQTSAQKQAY

For a further experiment, the target named is T4, GST-ATAF1 NAC domain (UniProt Q39013).
T4 sequence: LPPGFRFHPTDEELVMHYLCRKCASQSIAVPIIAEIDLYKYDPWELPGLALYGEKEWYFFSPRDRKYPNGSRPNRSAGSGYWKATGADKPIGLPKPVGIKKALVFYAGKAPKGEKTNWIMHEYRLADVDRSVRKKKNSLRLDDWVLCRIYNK

Experiment [1] deals with T5, GST-ANAC092(1-285) full length (UniProt Q9FKA0).
T5 sequence: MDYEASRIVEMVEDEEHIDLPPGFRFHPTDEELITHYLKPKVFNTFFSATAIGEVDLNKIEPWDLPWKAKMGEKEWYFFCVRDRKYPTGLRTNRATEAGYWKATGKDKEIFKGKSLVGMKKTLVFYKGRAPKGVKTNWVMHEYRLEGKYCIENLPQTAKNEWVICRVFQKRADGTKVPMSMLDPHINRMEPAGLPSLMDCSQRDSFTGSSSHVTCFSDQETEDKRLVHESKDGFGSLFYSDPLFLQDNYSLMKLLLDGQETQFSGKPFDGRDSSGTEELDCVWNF

The next experiment deals with T6, GST-NAP(1-166) (UniProt O49255).
T6 sequence: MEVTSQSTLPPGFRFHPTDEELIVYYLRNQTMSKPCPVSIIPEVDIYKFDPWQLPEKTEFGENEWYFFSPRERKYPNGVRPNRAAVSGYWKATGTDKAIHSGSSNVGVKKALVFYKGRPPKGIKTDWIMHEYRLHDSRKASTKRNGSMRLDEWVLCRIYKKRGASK

Another experiment has as its target T7, GST-NST2(1-184) (UniProt Q9M274).
T7 sequence: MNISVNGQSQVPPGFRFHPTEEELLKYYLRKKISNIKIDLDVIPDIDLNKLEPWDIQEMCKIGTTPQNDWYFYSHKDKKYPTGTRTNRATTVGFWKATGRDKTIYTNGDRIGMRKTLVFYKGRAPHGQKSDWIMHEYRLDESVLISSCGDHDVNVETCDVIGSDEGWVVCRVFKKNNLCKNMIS

The next experiment concerns the target T8, GST-NTL8 NAC domain (UniProt Q9XIN7).
T8 sequence: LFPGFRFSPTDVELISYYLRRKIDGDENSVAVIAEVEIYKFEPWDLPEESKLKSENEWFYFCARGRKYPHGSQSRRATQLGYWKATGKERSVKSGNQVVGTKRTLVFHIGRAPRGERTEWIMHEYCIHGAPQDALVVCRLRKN

Another experiment concerns the target T9, GST-SND1(1-203) (UniProt Q9LPI7).
T9 sequence: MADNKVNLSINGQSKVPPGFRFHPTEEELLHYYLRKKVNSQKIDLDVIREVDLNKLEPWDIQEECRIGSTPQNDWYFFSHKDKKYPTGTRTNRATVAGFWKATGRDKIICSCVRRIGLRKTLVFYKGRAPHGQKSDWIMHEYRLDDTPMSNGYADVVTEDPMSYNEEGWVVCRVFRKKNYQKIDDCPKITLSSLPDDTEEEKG

The target in another experiment is T10, GST-VND3 NAC domain (UniProt Q9FH59).
T10 sequence: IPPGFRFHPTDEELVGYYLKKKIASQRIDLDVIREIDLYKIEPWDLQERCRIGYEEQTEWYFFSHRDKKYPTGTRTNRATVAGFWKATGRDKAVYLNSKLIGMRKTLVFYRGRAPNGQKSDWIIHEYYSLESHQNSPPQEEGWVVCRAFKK

The target of a further experiment is T11, GST-VND7 NAC domain (UniProt Q9C8W9).
T11 sequence: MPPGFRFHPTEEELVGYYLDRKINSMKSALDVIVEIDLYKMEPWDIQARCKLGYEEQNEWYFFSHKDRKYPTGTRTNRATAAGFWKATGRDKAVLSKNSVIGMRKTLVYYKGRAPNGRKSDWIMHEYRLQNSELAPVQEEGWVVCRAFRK

The target of experiment [2] is T12, GST-VOZ2 (Arabidopsis thaliana) (UniProt Q9SLB9).
T12 sequence: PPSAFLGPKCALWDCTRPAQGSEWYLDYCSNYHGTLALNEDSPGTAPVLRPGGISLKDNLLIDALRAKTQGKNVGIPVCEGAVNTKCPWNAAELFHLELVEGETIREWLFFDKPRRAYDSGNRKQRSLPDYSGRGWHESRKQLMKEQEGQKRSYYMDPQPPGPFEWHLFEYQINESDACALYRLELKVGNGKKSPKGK

Another experiment has as its target GST-WRKY1(266-371) (UniProt Q9SI37).

Results on 6 sequences are retold here after PMC4081100.

The entries are a selection whose mix differs from that of the whole data set. For part of these data: At the low end of the ranking the order means little. The list shows a part of the results. For part of these data: The source does not settle which construct or isoform was used.

Sequence of UniProt Q9SCK6 (Q9SCK6 1-168): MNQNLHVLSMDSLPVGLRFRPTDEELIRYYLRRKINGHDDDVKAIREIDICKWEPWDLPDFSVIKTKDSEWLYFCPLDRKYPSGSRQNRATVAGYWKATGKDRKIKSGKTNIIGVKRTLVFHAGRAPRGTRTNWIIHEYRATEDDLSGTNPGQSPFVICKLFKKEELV
Sequence of GST-WRKY1(266-371) (Q9SI37 266-371, chain 1 of 2): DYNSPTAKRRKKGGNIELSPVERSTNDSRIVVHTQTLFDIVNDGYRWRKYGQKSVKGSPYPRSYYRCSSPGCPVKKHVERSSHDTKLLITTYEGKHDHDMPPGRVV

In the case of TGACCCCA, the binding signal with GST-ANAC092(1-176) is -0.0806 E-score; with GST-NTL6(1-168), -0.0433 E-score; in the experiment with GST-ANAC019 NAC domain, 0.0651 E-score; with GST-ANAC055(1-171) it was -0.146 E-score; with GST-ATAF1 NAC domain, -0.0934 E-score; in experiment [1] it was -0.0864 E-score. In addition, the binding signal with GST-NAP(1-166) was -0.0249 E-score; in the experiment with GST-NST2(1-184), 0.0103 E-score; with GST-NTL8 NAC domain, 0.0351 E-score; with GST-SND1(1-203), -0.135 E-score; with GST-VND3 NAC domain it was -0.188 E-score; with GST-VND7 NAC domain it was 0.00782 E-score. The binding signal in experiment [2] was -0.0154 E-score; in the experiment with GST-WRKY1(266-371), 0.428 E-score.
On to GCTGGTCA, for which the binding signal with GST-ANAC092(1-176) was -0.119 E-score; with GST-NTL6(1-168), -0.154 E-score; with GST-ANAC019 NAC domain it was 0.029 E-score; in the experiment with GST-ANAC055(1-171) it was -0.0602 E-score; with GST-ATAF1 NAC domain it was -0.11 E-score; in [1] it was -0.121 E-score. Moreover, the binding signal with GST-NAP(1-166) was -0.19 E-score; in the experiment with GST-NST2(1-184), -0.0573 E-score; with GST-NTL8 NAC domain it was -0.0139 E-score; in the experiment with GST-SND1(1-203), -0.0978 E-score; with GST-VND3 NAC domain, -0.144 E-score; in the experiment with GST-VND7 NAC domain it was -0.00385 E-score. In addition, the binding signal in experiment [2] was -0.0284 E-score; with GST-WRKY1(266-371), 0.452 E-score.
Turning to AGTCAGCC, the binding signal was 0.0127 E-score with GST-ANAC092(1-176); -0.0886 E-score with GST-NTL6(1-168); -0.0171 E-score with GST-ANAC019 NAC domain; -0.162 E-score in the experiment with GST-ANAC055(1-171); -0.0659 E-score in the experiment with GST-ATAF1 NAC domain; -0.0636 E-score in [1]. Besides, the binding signal with GST-NAP(1-166) was -0.138 E-score; with GST-NST2(1-184) it was -0.109 E-score; in the experiment with GST-NTL8 NAC domain, 0.00365 E-score; with GST-SND1(1-203), -0.0851 E-score; with GST-VND3 NAC domain, -0.0158 E-score; with GST-VND7 NAC domain, -0.0591 E-score. For the same sequence, the binding signal in [2] is -0.0972 E-score; with GST-WRKY1(266-371), 0.415 E-score.
GGGTCAGA: the binding signal in the experiment with GST-ANAC092(1-176) was -0.147 E-score; with GST-NTL6(1-168), -0.157 E-score; with GST-ANAC019 NAC domain it was -0.0324 E-score; with GST-ANAC055(1-171) it was -0.222 E-score; with GST-ATAF1 NAC domain, -0.173 E-score; in experiment [1] it was -0.18 E-score. Moreover, the binding signal was -0.114 E-score in the experiment with GST-NAP(1-166); -0.174 E-score in the experiment with GST-NST2(1-184); 0.0446 E-score with GST-NTL8 NAC domain; -0.0596 E-score with GST-SND1(1-203); -0.171 E-score with GST-VND3 NAC domain; -0.0695 E-score with GST-VND7 NAC domain. The binding signal was -0.0219 E-score in experiment [2] and 0.432 E-score in the experiment with GST-WRKY1(266-371).
For the sequence CTATGACC, the binding signal is -0.171 E-score in the experiment with GST-ANAC092(1-176); -0.0402 E-score in the experiment with GST-NTL6(1-168); -0.147 E-score with GST-ANAC019 NAC domain; -0.177 E-score with GST-ANAC055(1-171); -0.143 E-score in the experiment with GST-ATAF1 NAC domain; -0.142 E-score in experiment [1]. For the same sequence, the binding signal was -0.0636 E-score in the experiment with GST-NAP(1-166); -0.128 E-score with GST-NST2(1-184); -0.00596 E-score with GST-NTL8 NAC domain; -0.119 E-score with GST-SND1(1-203); -0.0802 E-score with GST-VND3 NAC domain; -0.138 E-score in the experiment with GST-VND7 NAC domain. Besides, the binding signal in [2] is -0.0806 E-score; in the experiment with GST-WRKY1(266-371) it was 0.412 E-score.
On to TCGAGTCA, for which the binding signal with GST-ANAC092(1-176) was -0.244 E-score; in the experiment with GST-NTL6(1-168), -0.127 E-score; in the experiment with GST-ANAC019 NAC domain, -0.205 E-score; in the experiment with GST-ANAC055(1-171), -0.194 E-score; in the experiment with GST-ATAF1 NAC domain it was -0.179 E-score; in experiment [1] it was -0.197 E-score. In addition, the binding signal in the experiment with GST-NAP(1-166) is 0.00811 E-score; with GST-NST2(1-184), -0.177 E-score; with GST-NTL8 NAC domain, -0.101 E-score; with GST-SND1(1-203), -0.14 E-score; in the experiment with GST-VND3 NAC domain, -0.0699 E-score; with GST-VND7 NAC domain, -0.155 E-score. Further, the results for the binding signal (in experiment [2]; in the experiment with GST-WRKY1(266-371)) were -0.0618 E-score and 0.417 E-score, respectively.
